# Patent US10745487B2, “Method of treating cancer by administering an anti-LGR5 monoclonal antibody” (Bionomics Limited, priority 2016, dated 2020)
# What was measured:
# CT3 tumors = test: CT3 tumor growth, combination with FolFiri; format: in vivo, CB.17 SCID mice; details: for tumor volume reduction, combination treatment compared to FolFiri regimen: 18G7H6A3 15 mg/kg twice per week in combination with FolFiri
# Excerpt: CB.17 SCID mice were implanted with CT3 cells grown under CSC conditions.
# [1] = test system: CT3 tumor cells (cancer stem cell frequency); test: CT3 limiting dilution re-implant assay; format: in vivo, CB17.Scid mice
# Excerpt: The mice were then monitored 2× per week for tumor growth, and tumors allowed to grow with no further treatment.
# AsPC-1 cells = test: AsPC-1 pancreatic cancer xenograft tumor growth; format: in vivo, CB17.SCID mice
# Excerpt: CB17.SCID mice were implanted with AsPC-1 cells (in matrigel+RPMI in a 1:1 ratio).
# [2] = test system: CT3 primary CRC xenograft; test: CT3 primary CRC xenograft tumor growth; format: in vivo, CB.17 SCID mice; details: compared to PBS and MOPC antibody controls, after 4 doses, 15 mg/kg twice weekly
# Excerpt: The CT3 primary CRC xenograft model was derived from a patient with stage III mCRC with mutations in K-Ras, H-Ras, APC, PI3K, PTEN, STK11, RB1, TP53, FGFR2, VANGL2, and ISCO. Low passage cryopreserved CT3 primary xenograft tumor fragments were implanted into 5 SCID/Bg mice. Tumors averaging ˜1150 mm3 pooled from five CT3 primary xenograft-bearing SCID mice were removed at day 41 post-implant, dissociated and re-implanted into CB.17 SCID mice in Matrigel subcutaneously, and monitored twice weekly for tumor size and body weight. When tumors reached an average of 130 mm3, mice were randomized (34 days post implant). […] Mice were dosed BIW at 15 mg/kg for 2.5 weeks (5 doses), starting on day 34. All mice were monitored twice weekly for body weight and tumor size, as well as overall health and appearance, until termination.
substance,measurement,setting,value
18G7H6A3,"tumor volume reduction, combination treatment compared to FolFiri regimen",CT3 tumors; day 61,about 58%
same,"tumor volume reduction, combination treatment compared to FolFiri regimen",CT3 tumors; day 65,~53%
same,"tumor volume reduction, combination treatment compared to FolFiri regimen",CT3 tumors; day 68,~45%
same,"tumor volume reduction, combination treatment compared to FolFiri regimen",CT3 tumors; day 71,~33%
same,"tumor volume reduction, combination treatment compared to FolFiri regimen",CT3 tumors; day 75,~37%
same,"growth of CT3 tumors, combination compared to FolFiri regimen",CT3 tumors; in combination with FolFiri,reduced growth of CT3 tumors
same,time to progression of re-implanted cells compared to FOLFIRI alone,[1]; 18G7H6A3 FOLFIRI combination,delayed time to progression
same,tumorigenicity of re-implanted cells compared to FOLFIRI alone,[1]; cells from mice treated in combination with FOLFIRI,greatly decreased tumorigenicity
same,reduction of cancer stem cell frequency by linear regression analysis (factor),"[1]; in combination with FOLFIRI vs FOLFIRI, day 40",6
same,tumor growth inhibition compared to gemcitabine alone,"AsPC-1 cells; in combination with gemcitabine (90 mg/kg), day 61 post implantation",up to 36%
same,tumor growth inhibition compared to saline and/or control IgG,"AsPC-1 cells; single agent, 15 mg/kg twice per week ip, day 41 post implantation",≤ 40%
same,"anti-tumor activity in vivo, CT3",[2],significant anti-tumor activity
